Assay results from article PMC9911399, “Two distinct binding modes provide the RNA-binding protein RbFox with extraordinary sequence specificity”.
Changes are numbered by the printed parent chain; changes in the protein carry UniProt numbers. The list shows a part of the results.

B1: CGAACGU (DNA:RNA)
RNA: GGGAGACCGGAAUUCAGAUUGUCCCGAACGUUUAAAUCCCGUCGUAGCCACCA
DNA 1: CAATCTGAATTCCGGTCTCCC
DNA 2: TGGTGGCTACGACGGGATT
B2: UCACGGU (DNA:RNA)
RNA: B1 RNA with C25U, G26C, A28C, C29G
DNA 1: CAATCTGAATTCCGGTCTCCC
DNA 2: TGGTGGCTACGACGGGATT
B3: UGGAUGA (DNA:RNA)
RNA: B1 RNA with C25U, A27G, C29U, U31A
DNA 1: CAATCTGAATTCCGGTCTCCC
DNA 2: TGGTGGCTACGACGGGATT
B4: CUUGGAU (DNA:RNA)
RNA: B1 RNA with G26U, A27U, A28G, C29G, G30A
DNA 1: CAATCTGAATTCCGGTCTCCC
DNA 2: TGGTGGCTACGACGGGATT
B5: GCCCCGG (DNA:RNA)
RNA: B1 RNA with C25G, G26C, A27C, A28C, U31G
DNA 1: CAATCTGAATTCCGGTCTCCC
DNA 2: TGGTGGCTACGACGGGATT
B6: ACUGGGC (DNA:RNA)
RNA: B1 RNA with C25A, G26C, A27U, A28G, C29G, U31C
DNA 1: CAATCTGAATTCCGGTCTCCC
DNA 2: TGGTGGCTACGACGGGATT
B7: GUGGGCG (DNA:RNA)
RNA: GGGAGACCGGAAUUCAGAUUGUCCGUGGGCGUUAAAUCCCGUCGUAGCCACCA
DNA 1: CAATCTGAATTCCGGTCTCCC
DNA 2: TGGTGGCTACGACGGGATT
B8: CGACGGA (DNA:RNA)
RNA: B1 RNA with A28C, C29G, U31A
DNA 1: CAATCTGAATTCCGGTCTCCC
DNA 2: TGGTGGCTACGACGGGATT
B9: AGCGCUG (DNA:RNA)
RNA: B1 RNA with C25A, A27C, A28G, G30U, U31G
DNA 1: CAATCTGAATTCCGGTCTCCC
DNA 2: TGGTGGCTACGACGGGATT
B10: GCCCCAG (DNA:RNA)
RNA: B7 RNA with U26C, G27C, G28C, G29C, C30A
DNA 1: CAATCTGAATTCCGGTCTCCC
DNA 2: TGGTGGCTACGACGGGATT
B11: GUCGAGA (DNA:RNA)
RNA: B7 RNA with G27C, G29A, C30G, G31A
DNA 1: CAATCTGAATTCCGGTCTCCC
DNA 2: TGGTGGCTACGACGGGATT
B12: GCGUAAA (DNA:RNA)
RNA: B7 RNA with U26C, G28U, G29A, C30A, G31A
DNA 1: CAATCTGAATTCCGGTCTCCC
DNA 2: TGGTGGCTACGACGGGATT
B13: GCAGAUC (DNA:RNA)
RNA: B7 RNA with U26C, G27A, G29A, C30U, G31C
DNA 1: CAATCTGAATTCCGGTCTCCC
DNA 2: TGGTGGCTACGACGGGATT
B14: GCAGACC (DNA:RNA)
RNA: B7 RNA with U26C, G27A, G29A, G31C
DNA 1: CAATCTGAATTCCGGTCTCCC
DNA 2: TGGTGGCTACGACGGGATT
B15: CUUACAU (DNA:RNA)
RNA: B1 RNA with G26U, A27U, G30A
DNA 1: CAATCTGAATTCCGGTCTCCC
DNA 2: TGGTGGCTACGACGGGATT
B16: GCCUCAA (DNA:RNA)
RNA: B1 RNA with C25G, G26C, A27C, A28U, G30A, U31A
DNA 1: CAATCTGAATTCCGGTCTCCC
DNA 2: TGGTGGCTACGACGGGATT
B17: AAUGCCU (DNA:RNA)
RNA: B1 RNA with C25A, G26A, A27U, A28G, G30C
DNA 1: CAATCTGAATTCCGGTCTCCC
DNA 2: TGGTGGCTACGACGGGATT
B18: GACGUGC (DNA:RNA)
RNA: B7 RNA with U26A, G27C, G29U, C30G, G31C
DNA 1: CAATCTGAATTCCGGTCTCCC
DNA 2: TGGTGGCTACGACGGGATT
B19: AAAAGCA (DNA:RNA)
RNA: B1 RNA with C25A, G26A, C29G, G30C, U31A
DNA 1: CAATCTGAATTCCGGTCTCCC
DNA 2: TGGTGGCTACGACGGGATT
B20: UUAGGCU (DNA:RNA)
RNA: B7 RNA with G25U, G27A, G31U
DNA 1: CAATCTGAATTCCGGTCTCCC
DNA 2: TGGTGGCTACGACGGGATT
B21: UAAUGCU (DNA:RNA)
RNA: B1 RNA with C25U, G26A, A28U, C29G, G30C
DNA 1: CAATCTGAATTCCGGTCTCCC
DNA 2: TGGTGGCTACGACGGGATT
B22: CUUAACA (DNA:RNA)
RNA: B1 RNA with G26U, A27U, C29A, G30C, U31A
DNA 1: CAATCTGAATTCCGGTCTCCC
DNA 2: TGGTGGCTACGACGGGATT
B23: CCCAGCG (DNA:RNA)
RNA: B7 RNA with G25C, U26C, G27C, G28A
DNA 1: CAATCTGAATTCCGGTCTCCC
DNA 2: TGGTGGCTACGACGGGATT
B24: GACGUUG (DNA:RNA)
RNA: B7 RNA with U26A, G27C, G29U, C30U
DNA 1: CAATCTGAATTCCGGTCTCCC
DNA 2: TGGTGGCTACGACGGGATT
B25: GCGCGGG (DNA:RNA)
RNA: B7 RNA with U26C, G28C, C30G
DNA 1: CAATCTGAATTCCGGTCTCCC
DNA 2: TGGTGGCTACGACGGGATT
B26: AUUUCAA (DNA:RNA)
RNA: B1 RNA with C25A, G26U, A27U, A28U, G30A, U31A
DNA 1: CAATCTGAATTCCGGTCTCCC
DNA 2: TGGTGGCTACGACGGGATT
B27: UGGCAAA (DNA:RNA)
RNA: B1 RNA with C25U, A27G, A28C, C29A, G30A, U31A
DNA 1: CAATCTGAATTCCGGTCTCCC
DNA 2: TGGTGGCTACGACGGGATT
B28: CGGAUGU (DNA:RNA)
RNA: B1 RNA with A27G, C29U
DNA 1: CAATCTGAATTCCGGTCTCCC
DNA 2: TGGTGGCTACGACGGGATT
B29: CGAUUGU (DNA:RNA)
RNA: B1 RNA with A28U, C29U
DNA 1: CAATCTGAATTCCGGTCTCCC
DNA 2: TGGTGGCTACGACGGGATT
B30: AGCGCGC (DNA:RNA)
RNA: B1 RNA with C25A, A27C, A28G, U31C
DNA 1: CAATCTGAATTCCGGTCTCCC
DNA 2: TGGTGGCTACGACGGGATT
B31: CACUAAG (DNA:RNA)
RNA: B1 RNA with G26A, A27C, A28U, C29A, G30A, U31G
DNA 1: CAATCTGAATTCCGGTCTCCC
DNA 2: TGGTGGCTACGACGGGATT

The binders below were run against T1, RBFOX1 RRM (Homo sapiens, UniProt Q9NWB1 109-208) (assay: EMSA; HiTS-Eq, 1 nM pool, 10 min; buffer printed only for the single-RNA assays: 10 mM Tris pH 7.5, 150 mM NaCl, 3.4 mM EDTA, 0.001% NP-40, 30 C). Details: tags: His6 N-terminal (pET28a); label: 5' 32P.
T1 sequence: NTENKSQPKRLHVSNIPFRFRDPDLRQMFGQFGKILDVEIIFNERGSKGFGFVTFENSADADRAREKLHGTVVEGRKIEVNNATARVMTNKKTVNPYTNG
Procedure, shortened: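 Purified RbFox RRM, wild type or mutant, was incubated for 10 min in 50 µL with 1 nM of a 5′-radiolabelled RNA pool carrying 7 randomized nucleotides, whose flanks were annealed to DNA oligonucleotides, over a series of increasing protein concentrations. Unbound RNA was resolved on 8% native PAGE, cut out, reverse-transcribed, barcoded by PCR and sequenced on an Illumina HiSeq 2500. Relative association constants were derived from changes in read counts for each RNA species versus the control reaction and normalised to the cognate motif.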

First: B1
Second: B2
The binding signal of the first is higher: 0.0143 KA relative to UGCAUGU for the first, 0.00695 KA relative to UGCAUGU for the second.

First: B3
Second: B4
The binding signal of the first is higher: 0.0437 KA relative to UGCAUGU for the first, 0.00999 KA relative to UGCAUGU for the second.

Compared with B5, B6 is higher in binding signal: 0.0112 KA relative to UGCAUGU for the first, 0.0151 KA relative to UGCAUGU for the second.

First: B7
Second: B8
The binding signal of the first is higher: 0.0209 KA relative to UGCAUGU for the first, 0.00996 KA relative to UGCAUGU for the second.

First: B9
Second: B10
The binding signal of the first is higher: 0.0157 KA relative to UGCAUGU for the first, 0.00848 KA relative to UGCAUGU for the second.

Compared with B11, B12 is lower in binding signal: 0.0165 KA relative to UGCAUGU for the first, 0.00419 KA relative to UGCAUGU for the second.

Compared with B13, B14 is lower in binding signal: 0.0109 KA relative to UGCAUGU for the first, 0.0047 KA relative to UGCAUGU for the second.

First: B15
Second: B16
The binding signal of the first is lower: 0.00228 KA relative to UGCAUGU for the first, 0.00569 KA relative to UGCAUGU for the second.

First: B17
Second: B18
The binding signal of the first is lower: 0.0058 KA relative to UGCAUGU for the first, 0.0187 KA relative to UGCAUGU for the second.

Compared with B19, B20 is higher in binding signal: 0.00717 KA relative to UGCAUGU for the first, 0.0153 KA relative to UGCAUGU for the second.

First: B21
Second: B22
The binding signal of the first is higher: 0.0118 KA relative to UGCAUGU for the first, 0.00209 KA relative to UGCAUGU for the second.

First: B23
Second: B24
The binding signal of the first is lower: 0.0092 KA relative to UGCAUGU for the first, 0.0239 KA relative to UGCAUGU for the second.

First: B25
Second: B26
The binding signal of the first is higher: 0.0239 KA relative to UGCAUGU for the first, 0.00233 KA relative to UGCAUGU for the second.

First: B27
Second: B28
The binding signal of the first is lower: 0.0111 KA relative to UGCAUGU for the first, 0.0261 KA relative to UGCAUGU for the second.

Compared with B29, B30 is lower in binding signal: 0.0164 KA relative to UGCAUGU for the first, 0.0135 KA relative to UGCAUGU for the second.

With B31 the binding signal was 0.00529 KA relative to UGCAUGU.
